# The other results are listed elsewhere or left out.
# B1: LTL (Lotus tetragonolobus), P19664 (protein)
# chain: VSFNYTEFKDDGSLILQGDAKIWTDGRLAMPTDPLVNNPKTTRSAGRALYATPVPIWDSATGNVASFVTSFNFLFVIRELKYTPTDGLVFFLAPVGTEIPSGSTGGFLGIFDGSNGFNQFVAVEFDSYHNIWDPKSLRSSHVGIDVNSIMSLKAVNWNRVSGSLEKATIIYDSQTNILSVVMTSQNGQITTIYGTIDLKTVLPEKVSVGFSATTGNPEREKHDIYSWSFTSTLKEPEEQA
# Legend:
# Experiment in all cases: glycan array binding signal (z-score within array); higher = stronger binding
# Conditions in all cases: glycan notation: IUPAC condensed, linker removed
# [1] = target: GlcNAc(b1-3)[GlcNAc(b1-6)]Gal(b1-4)GlcNAc
# In short: (§1)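 Columns mapping to the same glycan were averaged after glycan names were converted to IUPAC-condensed notation. The data come from 3228 arrays in the Consortium for Functional Glycomics database, limited to those with an available protein sequence. Binding is reported as a within-array Z-score averaged across arrays of one protein sequence and across linkers.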
# [2] = target: GlcNAc(b1-3)[GlcNAc(b1-6)]GalNAc
# In short: as §1
# [3] = target: GlcNAc(b1-3)[GlcNAc(b1-6)]GlcNAc
# In short: as §1
# [4] = target: GlcNAc(b1-3)[GlcNAc(b1-6)]GlcNAc(b1-4)GlcNAc
# In short: as §1
# [5] = target: GlcNAc(b1-4)Gal(b1-4)GlcNAc
# In short: as §1
# GlcNAc(b1-4)GlcNAc = target: GlcNAc(b1-4)GlcNAc
# In short: as §1
# [6] = target: GlcNAc(b1-4)GlcNAc(b1-4)GlcNAc
# In short: as §1
# [7] = target: GlcNAc(b1-4)GlcNAc(b1-4)GlcNAc(b1-4)GlcNAc(b1-4)GlcNAc
# In short: as §1
# [8] = target: GlcNAc(b1-4)GlcNAc(b1-4)GlcNAc(b1-4)GlcNAc(b1-4)GlcNAc(b1-4)GlcNAc
# In short: as §1
# [9] = target: GlcNAc(b1-4)[GlcNAc(b1-6)]GalNAc
# In short: as §1
# [10] = target: GlcNAc(b1-6)Gal(b1-4)GlcNAc
# In short: as §1
# GlcNAc(b1-6)GalNAc = target: GlcNAc(b1-6)GalNAc
# In short: as §1
# [11] = target: GlcNAc6S(b1-3)Gal(b1-4)GlcNAc
# In short: as §1
# Kdn(a2-3)Gal(b1-3)GalNAc = target: Kdn(a2-3)Gal(b1-3)GalNAc
# In short: as §1
# Kdn(a2-3)Gal(b1-3)GlcNAc = target: Kdn(a2-3)Gal(b1-3)GlcNAc
# In short: as §1
# Kdn(a2-3)Gal(b1-4)Glc = target: Kdn(a2-3)Gal(b1-4)Glc
# In short: as §1
# Kdn(a2-3)Gal(b1-4)GlcNAc = target: Kdn(a2-3)Gal(b1-4)GlcNAc
# In short: as §1
# [12] = target: Kdn(a2-3)Gal(b1-4)[Fuc(a1-3)]GlcNAc
# In short: as §1
# Kdn(a2-6)Gal(b1-4)GlcNAc = target: Kdn(a2-6)Gal(b1-4)GlcNAc
# In short: as §1
# [13] = target: Man(a1-2)Man(a1-2)Man(a1-3)Man
# In short: as §1
# [14] = target: Man(a1-2)Man(a1-2)Man(a1-3)[Man(a1-2)Man(a1-3)[Man(a1-2)Man(a1-6)]Man(a1-6)]Man(b1-4)GlcNAc(b1-4)GlcNAc
# In short: as §1
# [15] = target: Man(a1-2)Man(a1-2)Man(a1-3)[Man(a1-2)Man(a1-6)[Man(a1-3)]Man(a1-6)]Man(b1-4)GlcNAc(b1-4)GlcNAc
# In short: as §1
# [16] = target: Man(a1-2)Man(a1-2)Man(a1-6)[Man(a1-3)]Man
# In short: as §1
# Man(a1-2)Man(a1-3)Man = target: Man(a1-2)Man(a1-3)Man
# In short: as §1
# [17] = target: Man(a1-2)Man(a1-3)[Man(a1-2)Man(a1-6)]Man
# In short: as §1
# [18] = target: Man(a1-2)Man(a1-3)[Man(a1-2)Man(a1-6)]Man(a1-6)[Man(a1-2)Man(a1-2)Man(a1-3)]Man
# In short: as §1
# [19] = target: Man(a1-2)Man(a1-3)[Man(a1-2)Man(a1-6)]Man(a1-6)[Man(a1-2)Man(a1-2)Man(a1-3)]Man(b1-4)GlcNAc(b1-4)GlcNAc
# In short: as §1
# [20] = target: Man(a1-2)Man(a1-3)[Man(a1-3)[Man(a1-6)]Man(a1-6)]Man(b1-4)GlcNAc(b1-4)GlcNAc
# In short: as §1
# [21] = target: Man(a1-2)Man(a1-3)[Man(a1-6)]Man(a1-6)[Man(a1-2)Man(a1-3)]Man(b1-4)GlcNAc(b1-4)GlcNAc
# In short: as §1
# [22] = target: Man(a1-2)Man(a1-6)[Man(a1-3)]Man(a1-6)[Man(a1-2)Man(a1-2)Man(a1-3)]Man
# In short: as §1
# [23] = target: Man(a1-2)Man(a1-6)[Man(a1-3)]Man(a1-6)[Man(a1-2)Man(a1-2)Man(a1-3)]Man(b1-4)GlcNAc(b1-4)GlcNAc
# In short: as §1
# Man(a1-3)[Man(a1-6)]Man = target: Man(a1-3)[Man(a1-6)]Man
# In short: as §1
# [24] = target: Man(a1-3)[Man(a1-6)]Man(a1-6)[Man(a1-2)Man(a1-3)]Man(b1-4)GlcNAc(b1-4)GlcNAc
# In short: as §1
# [25] = target: Man(a1-3)[Man(a1-6)]Man(a1-6)[Man(a1-3)]Man
# In short: as §1
# [26] = target: Man(a1-3)[Man(a1-6)]Man(a1-6)[Man(a1-3)]Man(b1-4)GlcNAc(b1-4)GlcNAc
# In short: as §1
# [27] = target: Man(a1-3)[Man(a1-6)]Man(b1-4)GlcNAc(b1-4)GlcNAc
# In short: as §1
# [28] = target: Man(a1-3)[Man(a1-6)]Man(b1-4)GlcNAc(b1-4)[Fuc(a1-6)]GlcNAc
# In short: as §1
# Man(a1-6)Man = target: Man(a1-6)Man
# In short: as §1
binder,measurement,setting,value
B1,glycan array binding signal (z-score),[1],-0.236
same,glycan array binding signal (z-score),[2],-0.189
same,glycan array binding signal (z-score),[3],-0.398
same,glycan array binding signal (z-score),[4],-0.322
same,glycan array binding signal (z-score),[5],-0.415
same,glycan array binding signal (z-score),GlcNAc(b1-4)GlcNAc,-0.082
same,glycan array binding signal (z-score),[6],0.123
same,glycan array binding signal (z-score),[7],-0.032
same,glycan array binding signal (z-score),[8],0.542
same,glycan array binding signal (z-score),[9],-0.202
same,glycan array binding signal (z-score),[10],-0.053
same,glycan array binding signal (z-score),GlcNAc(b1-6)GalNAc,-0.031
same,glycan array binding signal (z-score),[11],0.059
same,glycan array binding signal (z-score),Kdn(a2-3)Gal(b1-3)GalNAc,0.043
same,glycan array binding signal (z-score),Kdn(a2-3)Gal(b1-3)GlcNAc,-0.235
same,glycan array binding signal (z-score),Kdn(a2-3)Gal(b1-4)Glc,-0.225
same,glycan array binding signal (z-score),Kdn(a2-3)Gal(b1-4)GlcNAc,-0.141
same,glycan array binding signal (z-score),[12],0.286
same,glycan array binding signal (z-score),Kdn(a2-6)Gal(b1-4)GlcNAc,-0.105
same,glycan array binding signal (z-score),[13],-0.279
same,glycan array binding signal (z-score),[14],-0.679
same,glycan array binding signal (z-score),[15],-0.458
same,glycan array binding signal (z-score),[16],-0.133
same,glycan array binding signal (z-score),Man(a1-2)Man(a1-3)Man,-0.264
same,glycan array binding signal (z-score),[17],-0.234
same,glycan array binding signal (z-score),[18],-0.222
same,glycan array binding signal (z-score),[19],-0.065
same,glycan array binding signal (z-score),[20],-0.842
same,glycan array binding signal (z-score),[21],0.062
same,glycan array binding signal (z-score),[22],-0.035
same,glycan array binding signal (z-score),[23],-0.278
same,glycan array binding signal (z-score),Man(a1-3)[Man(a1-6)]Man,-0.207
same,glycan array binding signal (z-score),[24],0.802
same,glycan array binding signal (z-score),[25],0.02
same,glycan array binding signal (z-score),[26],-0.065
same,glycan array binding signal (z-score),[27],-0.159
same,glycan array binding signal (z-score),[28],-0.407
same,glycan array binding signal (z-score),Man(a1-6)Man,-0.141
